The values that follow come from PMC11374477 (Journal of the American Chemical Society, 2024).

Each structure is given as a SMILES string.

One test has as its target HnH6H (Hyoscyamus niger, UniProt P24397). To be noted: vanadyl-succinate complex; labelled compound (7-d1).
In another test the target is AbH6H (Atropa belladonna, UniProt Q9XJ43). To be noted: co-product; V complex with Hyo.
Chain of AbH6H (Q9XJ43 1-343): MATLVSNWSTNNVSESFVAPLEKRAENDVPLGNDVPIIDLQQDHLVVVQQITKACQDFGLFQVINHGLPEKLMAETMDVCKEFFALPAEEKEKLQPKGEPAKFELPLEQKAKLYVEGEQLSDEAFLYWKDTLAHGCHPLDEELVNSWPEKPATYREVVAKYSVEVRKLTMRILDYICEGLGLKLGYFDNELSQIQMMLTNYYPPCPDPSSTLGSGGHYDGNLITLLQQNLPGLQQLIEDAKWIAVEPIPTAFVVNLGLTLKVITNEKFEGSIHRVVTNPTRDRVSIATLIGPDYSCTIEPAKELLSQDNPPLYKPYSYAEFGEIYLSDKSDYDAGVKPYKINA

Chain of HnH6H (P24397 whole entry, looked up): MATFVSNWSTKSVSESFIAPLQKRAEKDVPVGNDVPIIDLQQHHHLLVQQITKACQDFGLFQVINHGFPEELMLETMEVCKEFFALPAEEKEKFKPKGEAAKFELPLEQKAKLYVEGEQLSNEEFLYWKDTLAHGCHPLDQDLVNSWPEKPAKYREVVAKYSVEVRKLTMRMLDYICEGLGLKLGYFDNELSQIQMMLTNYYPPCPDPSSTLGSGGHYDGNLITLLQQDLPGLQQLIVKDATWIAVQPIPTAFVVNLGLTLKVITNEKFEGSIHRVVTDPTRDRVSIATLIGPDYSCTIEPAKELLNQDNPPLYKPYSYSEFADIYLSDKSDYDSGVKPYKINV

In the case of `CN1[C@H]2C[C@H](OC(=O)[C@H](CO)c3ccccc3)C[C@@H]1[C@@H](O)C2` [6-OH-Hyo, 6β-hydroxyhyoscyamine], the 2H-HYSCORE spectroscopy result on HnH6H is “HYSCORE spectra for the HnH6H•V^IVO•succ•7-d1-6-OH-Hyo (epoxidation) complex”. Take `O=C(O)CCC(=O)O` [succ, succinate]: the X-ray crystallography entry at AbH6H is “Structures obtained from crystals of the AbH6H•V^IVO•succ•Hyo and AbH6H•V^IVO•succ•6-OH-Hyo complexes”.
